Screen size: about 310,000 compounds; about 2,200 (0.71%) showed an effect of 50% or more. The effect is printed as a negative number. This is one part of the list.
molecular target: human ether-à-go-go-related gene (hERG) potassium channel (human, UniProt Q12809); assay: primary screen, population patch clamp on CHO cells stably expressing hERG
Sequence (Q12809 whole entry, looked up): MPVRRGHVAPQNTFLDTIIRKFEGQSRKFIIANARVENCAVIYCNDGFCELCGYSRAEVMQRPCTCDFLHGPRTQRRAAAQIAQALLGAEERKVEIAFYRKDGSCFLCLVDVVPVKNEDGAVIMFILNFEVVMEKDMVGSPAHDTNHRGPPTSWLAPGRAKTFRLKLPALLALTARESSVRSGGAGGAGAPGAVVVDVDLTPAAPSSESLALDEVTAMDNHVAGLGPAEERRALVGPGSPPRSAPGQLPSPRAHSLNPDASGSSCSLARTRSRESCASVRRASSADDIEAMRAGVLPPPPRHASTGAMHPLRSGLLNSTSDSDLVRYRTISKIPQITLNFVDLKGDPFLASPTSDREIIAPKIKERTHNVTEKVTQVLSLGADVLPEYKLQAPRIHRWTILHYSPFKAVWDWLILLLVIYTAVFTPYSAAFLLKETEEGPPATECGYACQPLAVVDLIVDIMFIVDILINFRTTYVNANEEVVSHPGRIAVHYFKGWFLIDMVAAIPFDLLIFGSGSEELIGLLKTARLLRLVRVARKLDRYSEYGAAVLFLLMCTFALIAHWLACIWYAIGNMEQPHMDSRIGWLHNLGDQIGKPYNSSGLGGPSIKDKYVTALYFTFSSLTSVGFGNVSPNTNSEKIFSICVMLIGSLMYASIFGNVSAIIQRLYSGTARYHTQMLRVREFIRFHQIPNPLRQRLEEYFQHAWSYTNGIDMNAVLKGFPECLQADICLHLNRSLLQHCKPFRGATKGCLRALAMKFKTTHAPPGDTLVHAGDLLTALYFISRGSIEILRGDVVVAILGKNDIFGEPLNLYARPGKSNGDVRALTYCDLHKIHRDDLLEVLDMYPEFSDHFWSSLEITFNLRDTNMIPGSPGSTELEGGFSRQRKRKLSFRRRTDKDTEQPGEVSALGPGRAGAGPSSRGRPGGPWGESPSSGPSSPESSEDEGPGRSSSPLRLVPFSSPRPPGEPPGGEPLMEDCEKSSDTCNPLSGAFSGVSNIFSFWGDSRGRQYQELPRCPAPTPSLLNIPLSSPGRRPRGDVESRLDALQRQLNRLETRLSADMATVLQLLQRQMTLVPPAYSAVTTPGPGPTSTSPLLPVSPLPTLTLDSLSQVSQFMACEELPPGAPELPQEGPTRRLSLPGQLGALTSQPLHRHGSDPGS

Row | Structure (SMILES) | hERG current change (%, negative = inhibition) at 1uM [%]
1 | COc1ccc(Nc2nc(CC(C)=O)ns2)cc1 | 15.9
2 | Cc1ccc2occ(/C=N/NC(=O)c3ccc(O)cc3)c(=O)c2c1 | -5.24
3 | O=C1CC(c2ccc(S(=O)(=O)N3CCN(c4ccccc4)CC3)cc2)CN1 (stereo not drawn) | 11.1
4 | Cc1nn(-c2ccccc2)nc1CNC(=O)C1CC1 | 14.4
5 | CCOC(=O)Cn1c2[n+](c3ccccc31)CC(O)CS2.[I-] (stereo not drawn) | 13.6
6 | COc1ccc(CNS(=O)(=O)c2ccc3c(c2)N(C(C)=O)CCO3)cc1 | 8.62
7 | COC(=O)c1c(NC(=O)CN2CCC3(O)CCCCC3C2c2cc(OC)ccc2OC)sc(C)c1C (stereo not drawn) | 10.6
8 | CC(C)c1ccc(/C=N/NC(=O)C2CCCC2)cc1 | 10.2
9 | CCc1nc2c(cnn2-c2ccc(Cl)cc2)c(=O)n1-c1ccc2c(c1)OCCO2 | 7.16
10 | Cc1cc(C)n(C(=O)c2ccccc2[N+](=O)[O-])n1 | 20.1
11 | COc1ccc(N(CC(=O)Nc2ccccc2SC)S(C)(=O)=O)cc1OC | 7.56
12 | CCc1sc(C(=O)NCCc2ccc(S(N)(=O)=O)cc2)cc1Br | 11.3
13 | C[N+](C)(C)CC(O)CC(=O)O.[Cl-] (stereo not drawn) | 2.32
14 | CC(C)C(=O)N1CCC(n2nccc2NC(=O)CCc2ccccc2)CC1 | 7.27
15 | COc1ccc(Nc2nccc(N(C)C)c2C#N)cc1 | 14.5
16 | CC1=C(CC[C@@H](C)CO)OC2CC3C4CCC5CC(O)CCC5(C)C4CC(=O)C3(C)C12 (stereo partly drawn) | 9.85
17 | COc1ccc([C@H]2CC(=O)C=C(c3ccc4c(c3)OCO4)C2)cc1 | 3.92
18 | COc1ccc(Nc2oc(-c3cccs3)nc2C#N)cc1 | 12.1
19 | N#Cc1ccccc1OCC(=O)OCC(=O)c1ccc[nH]1 | 8.07
20 | CN(C)C=Nc1ncc2c3ccccc3n(CCN(C)C)c2c1C#N | -2.27
21 | Cc1c(Br)c(C(N)=O)nn1C | 11.8
22 | COc1ccc(-c2cc(C)no2)cc1S(=O)(=O)N1CCN(c2ccc([N+](=O)[O-])cc2)CC1 | -42
23 | CCOc1cccc(/C=N/N2C(=O)CSC2=S)c1O | 5.55

Row | Structure (SMILES) | hERG current change (%, negative = inhibition) at 1uM [%]
24 | COc1ccc(OC)c(C(=O)NC2CCSc3ccccc32)c1 (stereo not drawn) | 15.9
25 | COc1ccccc1OCCCCOc1ccccc1F | 14.6
26 | CCOc1ccc(CN2C(=O)CCC2(C)C(=O)NCc2cccnc2)cc1 (stereo not drawn) | -9.1
27 | COC(=O)c1c(CSc2ccc(Cl)cc2)noc1C(=O)NCc1ccco1 | 11.2
28 | Cc1ccc(S(=O)(=O)NCCC(=O)N2CCN(C/C=C/c3ccccc3)CC2)cc1 | 3.89
29 | CCOC(=O)N1CCC(N2Cc3cccc(C(=O)Nc4ccc(F)cc4)c3C2=O)CC1 | -36.3
30 | CCOC(=O)c1sc(NC(=O)c2ccc(S(=O)(=O)N(C)C)cc2)cc1C | 12.5
31 | C=CCSC1=C(C#N)C(c2cc(Br)c(O)c(OC)c2)CC(=O)N1 (stereo not drawn) | 2.7
32 | O=C(NCCC1CCCCN1S(=O)(=O)c1cccs1)C(=O)Nc1ccccc1F (stereo not drawn) | 1.95
33 | Cc1ccc(NC(=O)C(C)Sc2nnc(-c3cccnc3)o2)cc1 (stereo not drawn) | 14
34 | COc1ccc(-n2ncc(C(=O)NC3CC3)c2C2CCN(C(=O)OC(C)(C)C)CC2)cc1 | 7.38
35 | Cc1ccc(/C(O)=C2\C(=O)C(=O)N(C)C2c2ccc([N+](=O)[O-])cc2)cc1 (stereo not drawn) | 12.2
36 | Cc1ccc(/C=C/C(=O)c2ccc(C)cc2)cc1 | 19.2
37 | CCN(c1cccc(C)c1)S(=O)(=O)c1cc2c3c(c1)CCC(=O)N3CCC2 | 4.65
38 | CCOc1ccc(C(=O)NCC(=O)NCCCSc2ccccc2)cc1OCC | 3.75
39 | CCC(=O)Nc1ccc(-c2nnc(SCc3ccc(C(=O)Nc4nccs4)cc3)n2CC)cc1 | 13.9
40 | CCS(=O)(=O)c1ccc2oc(Nc3ccc(OC)cc3)nc2c1 | 9.43
41 | O=C(CCCc1ccccc1)NCCS(=O)(=O)N1CCN(c2ccccc2F)CC1 | -3.51
42 | O=C(Nc1cccn2ncnc12)c1ccc(Cl)cc1Cl | 7.12
43 | CCOC(=O)C1CCCN(C(=O)Nc2ccccc2)C1 (stereo not drawn) | -1.3
44 | NS(=O)(=O)c1cccc(NC(=O)CSc2nc3ccccc3[nH]2)c1 | 9.28
45 | COc1cccc(-n2c(Cc3cc(=O)[nH]c(=O)[nH]3)nnc2SCC(=O)NC2CCCCC2)c1 | 9.6
46 | O=C(C1CCCCN1S(=O)(=O)c1ccccc1[N+](=O)[O-])N1CCCC1 (stereo not drawn) | 8.24

Row | Structure (SMILES) | hERG current change (%, negative = inhibition) at 1uM [%]
47 | O=C(NCCCc1ccccc1)c1cccc([N+](=O)[O-])c1 | 6.54
48 | CCCCOc1ccc(NC(=O)C2OC3OC(C)(C)OC3C3OC(C)(C)OC23)cc1 (stereo not drawn) | 9.6
49 | COc1cccc(Cn2nc(C(=O)O)c3ccccc3c2=O)c1 | 13.8
50 | C=C(C)c1cccc(C(C)(C)NC(=O)NC2CCN(Cc3ccccc3)CC2)c1.Cl | -32.2
51 | Cc1noc(C)c1S(=O)(=O)N1CCC(C(=O)c2ccccc2)CC1 | -9.1
52 | CC(C)(C)C(=O)Nc1nnc(Cc2ccccc2)s1 | 10.4
53 | Cc1ccc(-n2nnc(-c3cccnc3Cl)n2)cc1 | 21
54 | COc1cccc(/C=N/Nc2nn3cnnc3c3ccccc23)c1O | 1.31
55 | O=C(N/N=C/c1cn(-c2cccs2)nc1-c1ccccc1)c1ccccc1Cl | 0.0242
56 | Cc1c(CC(=O)NCCCC(=O)O)c(=O)oc2cc3occ(-c4ccccc4)c3cc12 | 6.23
57 | CCCCNC(=O)C1CCCN1C(=O)Nc1cccc(OC)c1 (stereo not drawn) | 11.2
58 | O=C(NNC(=S)NC(=O)c1ccc(Br)cc1)c1ccc([N+](=O)[O-])cc1 | 15.6
59 | COc1cccc(NC(=O)Cn2nnc(C(=O)Nc3ccccc3)c2N)c1 | 5.52
60 | CCOc1ccccc1/C=N/NC(=O)CNC(=O)c1cccs1 | -3.7
61 | COc1ccccc1-c1nnc(SCC(=O)NC2CCCCC2)n1C | 19.7
62 | Cc1ccc(S(=O)(=O)Nc2c(C)nn(C)c2C)cc1C | 17.9
63 | [O-]/[N+](=C\c1cccc(Br)c1)c1ccccc1 | 14.6
64 | COc1cccc(C#Cc2c(C=O)n(C)c3ccccc23)c1 | 11.3
65 | O=C(CCn1c(=O)oc2ccccc21)N1CCN(c2ccccc2F)CC1 | -3.11
66 | Cc1cccc(N2CCN(C(=O)C3CC(=O)N(C4CCCC4)C3)CC2)c1C (stereo not drawn) | -19.4
67 | CC1CC(C)CN(C(=O)COC(=O)c2ccc3c(c2)OCO3)C1 (stereo not drawn) | -4.84
68 | Cc1cc(C)c2c(=O)cc(C(F)(F)F)oc2n1 | 19.9
69 | CCN1CCN(CNC(=O)c2cnccn2)CC1 | 16.1

Row | Structure (SMILES) | hERG current change (%, negative = inhibition) at 1uM [%]
70 | Cc1ccc(C(O)Cn2nc(C)cc2C)cc1 (stereo not drawn) | 7.45
71 | Fc1ccc(/C=N/Nc2nn[nH]n2)cc1 | 7.47
72 | CCc1ccc2[nH]c(=O)c(C(c3nnnn3CCOC)N3CCN(c4ccccc4F)CC3)cc2c1 (stereo not drawn) | 3.84
73 | Cc1ccc2cc(CN(c3cccc(C)c3C)S(=O)(=O)c3ccccc3)c(=O)[nH]c2c1 | 16.1
74 | CCCN1CCN(C(=O)Cn2c(=O)oc3cc(S(=O)(=O)NCc4ccccc4)ccc32)CC1 | 9.92
75 | FC(F)(F)c1cccc(CON=C2CCN(c3ncc(C(F)(F)F)cc3Cl)CC2)c1 | -13.8
76 | Cc1cc(=O)oc2c1c(C)nn2-c1ccc(Br)cc1 | 9.89
77 | CN(Cc1ccccc1F)c1nc(-c2cccs2)nc2ccccc12 | 5.94
78 | CCc1ccc(CN(C)C(=O)CCc2nnc(Cc3cccc(C)c3)o2)nc1 | -7.57
79 | CCOC(=O)c1ccccc1N/C=C1\CCCCC1=O | 7.56
80 | CC(C)(CNCC(O)c1ccccc1)N1CCOCC1 (stereo not drawn) | 9.77
81 | COc1ccc(C)cc1NC(=O)c1nnn(CCc2ccccc2)c1N | 0.503
82 | CC(C)(C)n1nnnc1C(c1cccc(C(F)(F)F)c1)N1CCOCC1 (stereo not drawn) | 10
83 | Cc1c(NC(=O)/C(C#N)=C/c2ccc(-c3cc(Cl)ccc3Cl)o2)c(=O)n(-c2ccccc2)n1C | 6.3
84 | Cc1ccccc1OCC(=O)Nc1ccncc1 | 9.84
85 | CC(=O)Nc1ccc2nc(NS(=O)(=O)c3ccc(C)cc3)sc2c1 | 4.57
86 | Cc1c(-c2ccccc2)nc2ccccc2c1C(=O)Oc1ccc([N+](=O)[O-])cc1 | 6.3
87 | CCCCn1c(CCCNC(=O)CC)nc2ccccc21 | -3.85
88 | CCOC(=O)N1CCN(C(=O)c2cc(-c3ccncc3)nc3ccccc23)CC1 | -8.95
89 | CN(C)CCCNS(=O)(=O)c1ccc(Cl)s1 | 10.9
90 | CC(C)(CNC(=O)c1ccc(NS(=O)(=O)c2ccc(F)c(F)c2)cc1)N1CCOCC1 | -1.84

Reference: publication PMC4336329 (PLoS ONE, 2015)
